# Results: PubChem BioAssay (NCATS)
# Inconclusive results, whose numbers are uncertain, are shown with a selection of clear calls. For some of these results: Where the call is inconclusive, the potency comes from a doubtful curve fit. Active and inactive are the calls of the source. Unless noted, the call rests on the fitted dose curve; in most records, active means well fitted curve in the direction sought with a large enough effect; inconclusive means small, poorly fitted or top-dose-only effect, or another doubt; inactive means no such curve, though single readings can be large; an effect the other way counts as inactive or inconclusive.
# What was measured:
# [1] = HPAF-II 12hr Apoptosis Induction qHTS against the NCATS CANVASS Library (AID 1347358); details: HPAF-II caspase-3/7 Caspase-Glo luminescence; series mostly up to 46.1 µM; further: potency means the concentration at half of the fitted maximal effect
# Summary of the method: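 Cells plated at 500 per well are dosed with compound and incubated 12 hours at 37 degrees C. Caspase-Glo 3/7 reagent is added and, after 15 min at room temperature, luminescence proportional to caspase activity is measured.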
# [2] = HPAF-II 18hr Apoptosis Induction qHTS against the NCATS CANVASS Library (AID 1347360); details: HPAF-II caspase-3/7 luminescence; series mostly up to 46.1 µM; further: potency means the concentration at half of the fitted maximal effect
# Summary of the method: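 HPAF-II cells at 500/well were exposed for 18 h at 37 C to an 11-point compound series. Caspase-3/7 activity was read by Caspase-Glo luminescence after 15 min at RT.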
# [3] = Cytotoxicity qHTS for assessment of Hepg2 cells membrane integrity screened against the NCATS CANVASS Library (AID 1347387); details: HepG2 LDH release (CytoTox-ONE) fluorescence, 5 h; series mostly up to 46.1 µM; further: potency means the concentration at half of the fitted maximal effect
# Summary of the method: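 Cells were seeded at 2000 per well and left overnight to attach. Compounds were pin-transferred to give 0.59 nM - 46 uM in an 11-point series and incubated 5 hr at 37C. CytoTox-ONE reagent was added and, after 10 min at room temperature, fluorescence (ex 560, em 590 nm) was read.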
# [4] = Primary qHTS for inhibitors of nuclear receptor binding SET domain protein 2 (NSD2) in an RCH-ACV wild type WT cells (2C) (AID 1645877); details: RCH-ACV NSD2 WT (2C) viability, CellTiter-Glo, 72 h; series mostly up to 44.9 µM; further: nearly all actives have a fitted effect of over 70% in size; further: potency means the concentration at half of the fitted maximal effect; on activity change, negative = cell killing: on the % scale 0 is the no-effect control and ±100 the full control effect
# [5] = Primary fluorescence-based thiol-reactive (MSTI) qHTS assay for identification of artifact compounds. (AID 1845221); details: MSTI thiol-reactivity probe, 1 h; series mostly up to 53.8 µM; further: potency means the concentration at half of the fitted maximal effect;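 further: thiol-reactive compounds lower the probe fluorescence signal; nearly all actives have a fitted effect of over 65% in size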
# Summary of the method: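 MSTI probe at 4 uM final in 2% DMSO/PBS pH 7.4; compounds, 1 h at room temperature in dark. Fluorescence Ex/Em 525/598 nm, normalised to Acetyl-MSTI and MSTI, fitted to 4-parameter Hill.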
# [6] = HEK293 12hr Apoptosis Induction qHTS against the NCATS CANVASS Library (AID 1347361); details: HEK293 caspase-3/7 Caspase-Glo luminescence; series mostly up to 46.1 µM; further: potency means the concentration at half of the fitted maximal effect
# Summary of the method: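 HEK293 cells (500/well) were exposed to an 11-point qHTS concentration series for 12 hours at 37 degrees C. Caspase-3/7 activity was then read by DEVD-substrate luciferase luminescence after 15 min at room temperature.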
# [7] = target: Phospholipid hydroperoxide glutathione peroxidase GPX4 (Homo sapiens) (UniProt P36969); experiment: Primary qHTS Assay for Inhibitors of Recombinant Selenoprotein Glutathione Peroxidase 4 (GPX4) (AID 1845192); details: recombinant GPX4, GR-coupled NADPH fluorescence, 15 min; series mostly up to 50 µM; further: on the % scale 0 is the no-effect control and ±100 the full control effect; nearly all actives have a fitted effect of over 65% in size
# Sequence of UniProt P36969 (P36969 whole entry, looked up): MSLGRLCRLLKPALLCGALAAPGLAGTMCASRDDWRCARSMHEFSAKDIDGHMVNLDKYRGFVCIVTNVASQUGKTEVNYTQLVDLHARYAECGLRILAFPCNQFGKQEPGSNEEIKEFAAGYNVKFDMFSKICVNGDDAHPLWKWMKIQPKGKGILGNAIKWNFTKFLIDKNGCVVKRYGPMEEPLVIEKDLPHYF
# Summary of the method: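 qHTS, GR-coupled: GPX4 200 nM + cpd 30 min RT → GSH 1 mM, NADPH 0.5 mM, GR 100 nM → CHP 0.5 mM start; fluor 340/450 at t0 and t15 min; no-enzyme wells as control.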
# [8] = HEK293 24hr Apoptosis Induction qHTS against the NCATS CANVASS Library (AID 1347359); details: HEK293 caspase-3/7 activation, Caspase-Glo luminescence; series mostly up to 46.1 µM; further: potency means the concentration at half of the fitted maximal effect
# Summary of the method: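 HEK293 cells (500/well, DMEM + 10% FBS) were exposed to compounds in an 11-point series for 24 hours at 37 degrees C, then caspase-3/7 activity was read by Caspase-Glo DEVD luciferase luminescence after 15 min.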
# [9] = target: Cytochrome P450 2D6 (Homo sapiens) (UniProt P10635); experiment: Cytochrome P450 family 2 subfamily D member 6 (CYP2D6) small molecule antagonists: luciferase biochemical (cell-free) qHTS assay (AID 1645840; active means well fitted curve in the direction sought with a large enough effect in the repeat runs; inconclusive means weak or mixed curves; inactive means no such curve, though single readings can be large; an effect the other way counts as inactive or inconclusive; further: on the % scale 0 is the no-effect control and ±100 the full control effect; nearly all actives have a fitted effect of over 55% in size); details: P450-Glo CYP2D6 enzyme, luciferin luminescence, 1 h; series mostly up to 57.4 µM
# Sequence of UniProt P10635 (P10635 whole entry, looked up): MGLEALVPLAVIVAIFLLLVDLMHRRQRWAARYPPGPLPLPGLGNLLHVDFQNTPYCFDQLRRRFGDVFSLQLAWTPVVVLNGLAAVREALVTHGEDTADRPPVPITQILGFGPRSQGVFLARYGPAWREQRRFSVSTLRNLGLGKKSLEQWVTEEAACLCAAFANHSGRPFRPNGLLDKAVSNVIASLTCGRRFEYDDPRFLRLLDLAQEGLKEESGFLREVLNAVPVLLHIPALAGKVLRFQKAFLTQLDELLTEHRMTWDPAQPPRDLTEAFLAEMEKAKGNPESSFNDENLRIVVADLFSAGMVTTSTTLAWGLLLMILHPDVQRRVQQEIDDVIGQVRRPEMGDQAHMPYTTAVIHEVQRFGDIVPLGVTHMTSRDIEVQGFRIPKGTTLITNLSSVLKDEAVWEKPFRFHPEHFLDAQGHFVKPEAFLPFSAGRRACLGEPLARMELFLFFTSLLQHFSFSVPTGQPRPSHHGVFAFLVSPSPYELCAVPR
# Summary of the method: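 P450-Glo CYP2D6 system: proluciferin substrate converted by enzyme to luciferin, read by luminescence proportional to activity. Enzyme-substrate mix with compound 10 min at room temperature, then NADPH regeneration 1 h before detection reagent.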
# [10] = Primary qHTS for inhibitors of nuclear receptor binding SET domain protein 2 (NSD2) in an isogenic RCH-ACV NSD2 p.E1099K mutant (9B) (AID 1645876); details: RCH-ACV (leukaemia line) NSD2 E1099K (9B) viability, CellTiter-Glo, 72 h; series mostly up to 44.9 µM; further: nearly all actives have a fitted effect of over 70% in size; on activity change, negative = viability loss: on the % scale 0 is the no-effect control and ±100 the full control effect
# [11] = target: Luciferin 4-monooxygenase (Photinus pyralis) (UniProt P08659); experiment: Firefly luciferase counterscreen qHTS: Assay Interference Panel against the NCATS CANVASS Library (AID 1347363); details: purified firefly luciferase, luminescence inhibition, 5 min; series mostly up to 57.5 µM; further: potency means the concentration at half of the fitted maximal effect
# Sequence of UniProt P08659 (P08659 whole entry, looked up): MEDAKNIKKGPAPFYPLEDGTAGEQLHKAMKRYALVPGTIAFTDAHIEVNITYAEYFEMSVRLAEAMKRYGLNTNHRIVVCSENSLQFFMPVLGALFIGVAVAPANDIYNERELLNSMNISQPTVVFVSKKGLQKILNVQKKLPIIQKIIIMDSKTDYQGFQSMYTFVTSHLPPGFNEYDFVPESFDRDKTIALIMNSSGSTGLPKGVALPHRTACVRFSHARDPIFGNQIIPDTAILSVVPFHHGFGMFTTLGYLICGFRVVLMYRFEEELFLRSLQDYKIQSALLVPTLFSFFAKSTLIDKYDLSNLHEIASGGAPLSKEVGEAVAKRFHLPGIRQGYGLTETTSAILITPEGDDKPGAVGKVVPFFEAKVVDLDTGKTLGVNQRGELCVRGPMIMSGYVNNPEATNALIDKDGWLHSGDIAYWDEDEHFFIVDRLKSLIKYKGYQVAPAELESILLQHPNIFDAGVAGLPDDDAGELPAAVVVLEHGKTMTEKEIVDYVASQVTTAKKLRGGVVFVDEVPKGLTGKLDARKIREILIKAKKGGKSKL
# Summary of the method: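 Purified P. pyralis luciferase was added to compounds (11-point series) preincubated 15 min at room temperature with substrate containing 0.013 mM D-luciferin and 0.013 mM ATP; luminescence was read after 5 min.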
# [12] = NCATS anti-infectives library activity on the primary C. elegans qHTS viability assay (AID 1745855; calls by dose curve); details: C. elegans worm area imaging, day 7; series mostly up to 41.8 µM
# Summary of the method: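 GFP read-out by 488 nm laser cytometry at day 0, 3 and 7, gated on object perimeter, area and peak intensity, scored viability of PE254-GFP-FLuc worms exposed to compound in S medium with bacterial capsules at 21 °C.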
# [13] = target: Nuclear receptor subfamily 1 group I member 3 (Homo sapiens) (UniProt Q14994); experiment: Primary qHTS for antagonist of constitutive androstane receptor (CAR) against the NCATS DSHEA and TCM libraries (AID 1794836); details: CAR reporter cell assay, antagonist mode, luciferase; series mostly up to 40 µM; further: potency means the concentration at half of the fitted maximal effect
# Sequence of UniProt Q14994 (Q14994 whole entry, looked up): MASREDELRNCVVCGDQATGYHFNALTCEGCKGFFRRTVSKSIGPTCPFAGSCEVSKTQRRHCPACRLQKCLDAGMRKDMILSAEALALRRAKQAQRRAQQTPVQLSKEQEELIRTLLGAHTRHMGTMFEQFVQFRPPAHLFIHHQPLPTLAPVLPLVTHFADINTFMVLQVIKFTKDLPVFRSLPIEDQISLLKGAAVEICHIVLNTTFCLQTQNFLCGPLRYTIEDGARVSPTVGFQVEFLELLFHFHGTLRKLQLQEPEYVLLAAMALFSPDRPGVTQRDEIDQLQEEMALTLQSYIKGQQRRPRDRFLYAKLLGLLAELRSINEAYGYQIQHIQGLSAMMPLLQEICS
# Summary of the method: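 HepG2 cells stably carrying hCAR and a CYP2B6 luciferase reporter (2,500 cells/well) attached for 5 h, then received compounds with 48 uM CITCO for 24 h at 37C. ONE-Glo luminescence read antagonism; CellTiter-Fluor (405/540 nm) gave viability.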
# [14] = Viability counterscreen for antagonist of constitutive androstane receptor (CAR) against the NCATS DSHEA and TCM libraries (AID 1794837); details: CAR reporter cell line viability counterscreen, qHTS;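 further: potency means the concentration at half of the fitted maximal effect; compound exposure lasted 24 h before viability reading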
# Summary of the method: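 HepG2-CYP2B6-hCAR cells, 2,500/well, were exposed 24 hr at 37C to substances together with 48 uM CITCO (final). Viability was read as CellTiter-Fluor fluorescence (Ex/Em 405/540 nm) after 1 hr.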
# [15] = HPAF-II 24hr Apoptosis Induction qHTS against the NCATS CANVASS Library (AID 1347356); details: HPAF-II caspase-3/7 Caspase-Glo luminescence; series mostly up to 46.1 µM; further: potency means the concentration at half of the fitted maximal effect
# Summary of the method: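 Cells seeded at 500 per well, then compounds pin-transferred in an 11-point concentration series. After 24 hours at 37 degrees C, Caspase-Glo 3/7 was added and luminescence measured following 15 min at room temperature.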
# [16] = qHTS for ATAD5 Agonist screened against the NCATS CANVASS Library (AID 1347367); details: HEK293T ATAD5-luciferase reporter, luminescence, 16 h; series mostly up to 46.1 µM;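 further: luciferase reporter driven by ATAD5 which rises upon DNA damage; 0% is about no effect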
# Summary of the method: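 Luciferase reporter under ATAD5 control, stably integrated in HEK293T cells (2000/well). Compounds (11 points) incubated 16 h at 37C; viability read first by CellTiter-Fluor, then luminescence reporting ATAD5 activation. MMS positive control.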
# [17] = target: Glutathione peroxidase 1 (Homo sapiens) (UniProt P07203); experiment: Primary qHTS Assay for Inhibitors of Recombinant Selenoprotein Glutathione Peroxidase 1 (GPX1) (AID 1845191); details: recombinant GPX1, GR-coupled NADPH fluorescence, 15 min; series mostly up to 48.8 µM; further: on the % scale 0 is the no-effect control and ±100 the full control effect; nearly all actives have a fitted effect of over 65% in size
# Sequence of UniProt P07203 (P07203 whole entry, looked up): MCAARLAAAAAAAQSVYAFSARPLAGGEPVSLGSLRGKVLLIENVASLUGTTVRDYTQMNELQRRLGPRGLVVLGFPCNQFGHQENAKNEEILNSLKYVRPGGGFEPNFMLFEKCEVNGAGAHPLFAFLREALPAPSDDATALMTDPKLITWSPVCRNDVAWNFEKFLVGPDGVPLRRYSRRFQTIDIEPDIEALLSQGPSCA
# Summary of the method: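 GPX1 10 nM, GR 100 nM, GSH 1 mM, NADPH 0.5 mM, CHP 0.5 mM (final). 30-min cpd preincubation, RT. Ex340/Em450 read t=0, t=15 min.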
# [18] = Primary redox qHTS assay for identification of artifact compounds. (AID 1845223); details: Amplex Red/HRP redox cycling with DTT, fluorescence; series mostly up to 53.8 µM; further: potency means the concentration at half of the fitted maximal effect
# Summary of the method: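 Redox-cycling detection via DTT (250 uM final) oxidation coupled to Amplex Red (25 uM)/HRP (250 mU/mL) in HBSS. 15 min preincubation plus 30 min after DTT, room temperature. Ex/Em 525/598 nm; 4-parameter Hill fit against DMSO and 10 uM DA3003.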
# [19] = Inflammasome Signaling qHTS Counterscreen: IL-1-beta AlphaLISA counterscreen against the NCATS CANVASS Library (AID 1347381); details: Purified IL-1beta AlphaLISA signal interference counterscreen; series mostly up to 57.5 µM; further: potency means the concentration at half of the fitted maximal effect
# Summary of the method: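 Purified IL-1-beta (4 pg/well) + compound, 11-pt conc. series; acceptor beads 6 ug/mL + biotin-Ab 0.6 nM final, 1 h RT; SA-donor 24 ug/ml final, 30 min dark RT; read ex 680/em 615.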
# Tags describe the fitted curve by direction and shape.
smiles,measurement,setting,value
CO/C=C/C(=O)c1cc2cnc3c(N)cc(=NC(=O)C(C)C)c([nH]1)c23,Potency,[1],"inconclusive: 18.7 µM [activator, single point]"
same,Potency,[2],"inconclusive: 20.9 µM [activator, single point]"
same,Potency,[3],"inconclusive: 33.1 µM [rising, single point]"
CC1CCC2C(C)(C)C(O)C(O)CC2(C)C12Cc1c(O)cc(CO)c(C=O)c1O2 (stereo not drawn),Potency,[4],inactive
same,Potency,[5],inactive
C/C=C/c1cc2c(c(=O)o1)C(=O)[C@@H](O)[C@H](C)O2,Potency,[6],"inconclusive: 23.5 µM [activator, single point]"
C=CCC1=C[C@]2(OC)[C@H](C)[C@@H](c3ccc(OC)c(OC)c3)O[C@]2(OC)CC1=O,Potency,[7],inactive
same,Potency,[5],inactive
COC(=O)C1=C[C@]23C[C@@H](C)CC[C@@H]2[C@@]2(C)CC[C@@H](C(C)C)[C@@](O)(O3)[C@@H]12,Potency,[8],"inconclusive: 33.2 µM [activator, partial curve, poor fit]"
same,Potency,[6],"inconclusive: 29.6 µM [activator, single point]"
Nc1ncnc2c1ncn2[C@H]1CCCO1,Potency,[9],inactive
same,Potency,[10],inactive
same,Potency,[4],inactive
O=C(OC[C@H]1O[C@@H](OC(=O)c2cc(O)c(O)c(O)c2)[C@H](OC(=O)c2cc(O)c(O)c(O)c2)[C@@H](OC(=O)c2cc(O)c(O)c(O)c2)[C@@H]1OC(=O)c1cc(O)c(O)c(O)c1)c1cc(O)c(O)c(O)c1,Potency,[11],"inconclusive: 30.6 µM [inhibitor, single point]"
same,Potency,[12],inactive
same,Potency,[13],inactive
same,Potency,[14],"inconclusive: 35.5 µM [cytotoxic, partial curve, poor fit]"
COc1cc(O)c(C(=O)[C@@H]2[C@H](CC=C(C)C)C(C)=CC[C@H]2c2ccccc2)c(O)c1,Potency,[15],"inconclusive: 37.2 µM [activator, partial curve, poor fit]"
same,Potency,[1],"inconclusive: 33.2 µM [activator, single point]"
same,Potency,[2],"inconclusive: 33.2 µM [activator, single point]"
C/C(=C\[C@H](C)C(=O)CCCC1CC(=O)NC(=O)C1)[C@@H]1OC(=O)/C=C/CC/C=C/[C@H](O)[C@@H](O)[C@@H]1C,Potency,[16],inactive
CC1CCC2(C(=O)O)CCC3(C)C(=CCC4C5(C)CCC(O)C(C)(CO)C5CCC43C)C2C1(C)O (stereo not drawn),Potency,[4],inactive
COC(=O)C1=CO[C@@H](O[C@@H]2O[C@H](CO[C@@H]3O[C@H](CO)[C@@H](O)[C@H](O)[C@H]3O)[C@@H](O)[C@H](O)[C@H]2O)[C@@H]2C(CO)=CC[C@H]12,Potency,[17],inactive
C/C(=C\CCC1(C)C2CCC(C2)C1(C)O)C(=O)O (stereo not drawn),Potency,[10],inactive
same,Potency,[4],inactive
CC(=O)O[C@H]1CC[C@@]2(CI)C(=CC[C@@H]3[C@@H]2CC[C@]2(C)[C@@H]([C@H](C)CCCC(C)C)CC[C@@H]32)C1,"activity change, negative = viability loss",[10],inactive: -4.5% [at 9.23 µM]
same,"activity change, negative = cell killing",[4],inactive: -14% [at 9.23 µM]
same,"activity change, negative = thiol reactive",[5],inactive: -0.863% [at 11.5 µM]
COc1ccc(/C=C/C(=O)O[C@H]2[C@H](O[C@H]3[C@@H]4C=CO[C@@H](O[C@@H]5O[C@H](CO)[C@@H](O)[C@H](O)[C@H]5O)[C@@H]4[C@@]4(CO)O[C@@H]34)O[C@@H](C)[C@H](O)[C@H]2OC(C)=O)cc1,Potency,[5],"inconclusive: 5 µM [inhibitor, partial curve]"
same,Potency,[18],"inconclusive: 11.2 µM [activator, single point]"
CC(C)c1ccc(CC(=O)N2CCC[C@@H](c3cccc(OC(C)(C)C(=O)O)c3)C2)cc1,Potency,[4],inactive
CC1CC[C@]2(C(=O)O)CC[C@]3(C(=O)O)C(=CCC4[C@@]5(C)CC[C@H](OC6OC(C)C(O)C(OC7OC(CO)C(O)C(O)C7O)C6O)C(C)(C)C5CC[C@]43C)C2C1C (stereo partly drawn),Potency,[4],inactive
same,Potency,[13],"inconclusive: 1 µM [inhibitor, full curve]"
same,Potency,[5],"inconclusive: 7.07 µM [inhibitor, partial curve]"
same,Potency,[18],inactive
CC1CCC2(O1)C(C)(C)CC(O[C@@H]1O[C@H](CO[C@@H]3OC[C@](O)(CO)[C@H]3O)[C@@H](O)[C@H](O)[C@H]1O)CC2(C)O (stereo partly drawn),Potency,[10],inactive
same,Potency,[5],active: 13 µM
O=C(OCC12OC1C=CC(OC(=O)c1ccccc1)C2O)c1ccccc1 (stereo not drawn),Potency,[4],"inconclusive: 16 µM [inhibitor, single point]"
C[C@H](c1cnc(N)[nH]1)c1ccc(O)c2[nH]cc(-c3cnc(-c4c[nH]c5ccccc45)c(=O)[nH]3)c12,Potency,[19],"inconclusive: 17.2 µM [inhibitor, partial curve, poor fit]"
C=C1CC[C@@H]2[C@](C)(CO[C@@H]3O[C@H](CO)[C@@H](O)[C@H](O)[C@H]3O)[C@H](O)CC[C@@]2(C)[C@@H]1C/C=C1/C(=O)OC[C@H]1O,Potency,[10],inactive
same,Potency,[17],inactive
CC(C)C1=CC2C(CC[C@]2(C)O)[C@](C)(O)CC1 (stereo partly drawn),Potency,[10],inactive
same,Potency,[5],"inconclusive: 2.38 µM [inhibitor, full curve, poor fit]"
